Measured values reported in PubChem BioAssay AID686979 (National Center for Advancing Translational Sciences (NCATS), 2013).
Out of some 420,000 compounds screened, about 50,000 (12%) were called active. Inconclusive results, whose numbers are uncertain, are shown with a selection of clear calls. The call rests on the fitted dose curve; in most records, active means well fitted inhibition curve with a large enough effect; inconclusive means small, poorly fitted or top-dose-only effect; inactive means flat fitted curve, though single readings scatter. No potency is given beside an inconclusive call; the fits are too rough.

Assay: qHTS for Inhibitors of human tyrosyl-DNA phosphodiesterase 1 (TDP1): qHTS in cells in presence of CPT; further: nearly all actives have a fitted effect of over 55% in size
Conditions: chicken DT40 Tdp1-/-;hTDP1 cells + 20 nM CPT, ATP luminescence, 48 h; activity change, negative = growth inhibition: at 46.2 µM (top of the series) unless noted
Procedure, shortened: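 Chicken DT40 Tdp1-/- cells stably complemented with human TDP1 were seeded at 400 cells/well in medium containing 20 nM camptothecin, exposed to pin-transferred compounds, and grown at 37 °C for at least 48 hr. Viability was read as ATP luminescence.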
On the % scale 0 is the no-effect control and ±100 the full control effect; potency means the concentration at half of the fitted maximal effect; tags describe the fitted curve by direction and shape.

Structure (SMILES)	Potency	activity change, negative = growth inhibition
CC(C)(C)c1cc(C(=O)NNc2cc(C(F)(F)F)ccc2Cl)n(Cc2ccccc2)n1	inconclusive [inhibitor, single point]	–
CCC(Cc1ccccc1)n1c(=S)[nH]c2ccccc2c1=O (stereo not drawn)	inactive	–
CN(C(=O)c1ccc(NC(=O)Cc2cccc(NC(=O)C3CCCN(C(=O)C4CCCCC4)C3)c2)cc1)C1CCCC1 (stereo not drawn)	active: 20.6 µM	–
CCC(=O)N1N=C2CC(C)(C)OCC2C1c1ccccc1 (stereo not drawn)	inactive	–
COc1ccc(CNC(=O)COC(=O)c2ccccc2C(=O)c2ccccc2)cc1	inconclusive [inhibitor, single point]	–
Cc1ccccc1-c1cc2nc(NCCCN(C)C)n(C)c(=O)c2s1	inconclusive [inhibitor, single point]	–
COc1ccc(N=CC2=C(O)c3ccccc3C2=O)c(OC)c1	inconclusive [inhibitor, single point]	–
CSC1=N/C(=C/c2ccc(-n3cncn3)cc2)C(=O)N1	inactive	–
Cc1cccc(N2CCN(C(=O)c3cccc(-n4c(C)nc5cccnc54)c3)CC2)c1C	active: 7.31 µM	–
CCn1c(=O)[nH]c2cc(Cl)c(Cl)cc21	inactive	–
O=c1cnn(Cc2ccc(F)cc2)c2ccccc12	inconclusive [inhibitor, single point]	–
CCOC(=O)Cn1c(=NC(=O)c2nc3ccccc3s2)sc2cc(S(N)(=O)=O)ccc21	inconclusive [inhibitor, single point]	–
CC(CN1CCNCC1)(NS(=O)(=O)c1ccccc1)c1ccccc1 (stereo not drawn)	inconclusive [inhibitor, single point]	–
N#Cc1c2n(c3c(=O)n(Cc4ccccc4Cl)cnc13)CCCCC2	active: 18.4 µM	–
Cc1ccc(NC(=O)C(C)c2cccc(C(=O)c3ccccc3)c2)cc1 (stereo not drawn)	active: 14.6 µM	–
CCOc1ccccc1CNC(=O)C1CCN(c2nn3cc(-c4ccc(F)cc4)nc3s2)CC1	inactive	–
Cc1ccccc1-c1nc2cc(NC(=O)Cc3ccc(Cl)cc3)ccc2o1	inconclusive [inhibitor, single point]	–
Cc1cc(N2CCN(Cc3ccccc3)CC2)n2nc(C)c(-c3ccccc3)c2n1	active: 14.6 µM	–
Cc1ccc(S(=O)(=O)N2CCOCC2)cc1NC(=O)Cn1ccsc1=N	inconclusive [inhibitor, single point]	–
COc1ccc(C(=O)CN2C(=O)C(C)(C)Oc3ccc(C(=O)N4CCCCCC4)cc32)cc1	inconclusive [inhibitor, single point]	–
CNC(C)C(=O)NC(C(=O)N1CCCC1C(=O)Nc1ccc2[nH]ccc2c1)C(C)C (stereo not drawn)	inactive	–
O=P(OC1CCCCC1)(OC1CCCCC1)C(Nc1ccccc1)c1cccnc1 (stereo not drawn)	inconclusive [inhibitor, single point]	–
O=C(NNCS(=O)(=O)O)c1ccncc1	inactive	–
CC(C)c1cc(CNC(=O)c2cc(COc3cncc(Cl)c3)on2)on1	inconclusive [inhibitor, single point]	–
Cc1nnc(SCCn2c(N3CCC(Cc4ccccc4)CC3)nc3c2c(=O)[nH]c(=O)n3C)s1	inconclusive [inhibitor, single point]	–
CC(C)CC(N)c1csc(NC(=O)c2cc(C(C)(C)C)nn2Cc2ccccc2)n1 (stereo not drawn)	active: 7.31 µM	–

Structure (SMILES)	Potency	activity change, negative = growth inhibition
NCCN(Cc1ccc(Cl)c(Cl)c1)c1ccc(Br)cn1	active: 3.98 µM	–
COc1cc(CNCc2cc(OC)c(OC)c(OC)c2)cc(OC)c1	active: 13 µM	–
CCOC(=O)Nc1ccc(S(=O)(=O)NC2CCCCC2)cc1	inconclusive [inhibitor, single point]	–
CCOC(=O)C1(Cc2ccccc2C)CCCN(C(=O)COC)C1 (stereo not drawn)	inconclusive [inhibitor, partial curve]	–
Cc1ccc(C)c(OCC(=O)N2CCN(c3ncccn3)CC2)c1	inactive	–
CCOc1[nH]n(-c2ccccc2)c(=O)c1C=Nc1ccc(C)cc1	inconclusive [inhibitor, single point]	–
CCOc1ccccc1N(CC(=O)NCCSc1ccccc1)S(=O)(=O)c1ccccc1	inconclusive [inhibitor, single point]	–
Cc1nn(CC(=O)Nc2ccc3c(c2)OCO3)c(C)c1Cl	inactive	–
Fc1ccc(Nc2nc(NCc3ccco3)c3ccccc3n2)cc1	active: 9.2 µM	–
O=C(Nc1nnc(-c2ccncc2)s1)Nc1ccccc1F	inconclusive [inhibitor, partial curve]	–
COc1ccc(CCNC(=O)C2=CC=CN3CCS(=O)(=O)N=C23)cc1	inactive	–
COc1ccc(NC(=O)c2ccc(COCC(F)(F)C(F)F)cc2)cc1	inactive	–
Cc1cc(-c2csc(NC(=O)c3ccc(=O)[nH]c3)n2)c(C)n1Cc1ccccc1	inconclusive [inhibitor, single point]	–
CC(C)c1ccc(CN(Cc2ccco2)c2cnc(S(C)(=O)=O)nc2C(=O)Nc2ccc(F)cc2)cc1	inconclusive [inhibitor, single point]	–
COc1ccc(/C=C/C(=O)Nc2sc3c(c2C(=O)NCc2cccnc2)CCCC3)cc1	inconclusive [inhibitor, single point]	–
Cc1cccc(N2CCN(C(=O)Nc3cn(CC(C)C)c(=O)c4ccccc34)CC2)c1C	active: 8.2 µM	–
CCOc1ccc(NC(=S)N(Cc2ccc(Cl)cc2)Cc2ccco2)cc1	inconclusive [inhibitor, single point]	–
C(=C\c1nc2ccccc2o1)/c1ccc2c(c1)OCO2	inconclusive [inhibitor, partial curve, poor fit]	–
O=C(CCN1C(=O)C2C3CC(C(Br)C3Br)C2C1=O)OCC(=O)c1cccc([N+](=O)[O-])c1 (stereo not drawn)	inactive	–
COc1ccccc1CNC(=O)C(=O)NCC1OCCCN1S(=O)(=O)c1ccc(F)cc1C (stereo not drawn)	inactive	–
COc1ccc(/C=C/C(=O)NC(=S)NNC(=O)c2ccco2)cc1	active: 14.6 µM	–
Cc1ccc2c(c1)C(=O)C(=O)N2Cc1ccc(Cl)cc1	active: 0.731 µM	–
COc1ccccc1Cc1nc2ccccc2nc1SCC(=O)N(C)c1ccc(F)cc1	inconclusive [inhibitor, single point]	–
CN(C)CCCN(C(=O)c1cc(-c2cccs2)nc2ccccc12)c1nc2c(F)cccc2s1	inconclusive [inhibitor, single point]	–
Cc1cccc(N2CCN(c3nc4ccc(Cl)cc4n4cnnc34)CC2)c1C	active: 20.6 µM	–
Brc1ccccc1OCCCn1cnc2ccccc21	inconclusive [inhibitor, partial curve]	–

Structure (SMILES)	Potency	activity change, negative = growth inhibition
C=CCn1sc(=N)c(C#N)c1N	–	inconclusive: -35.5% [inhibitor]
COc1ccc(CNc2nc(NCc3ccc(OC)cc3)n(C(=O)c3ccncc3)n2)cc1	inactive	–
CC(=C\C(=O)O)/C(=C/c1ccccc1)C(=O)O	inactive	–
Cc1nc(NCCc2ccccc2)c(C#N)c(C)c1[N+](=O)[O-]	inactive	–
O=C(C[C@H]1CC[C@@H](NS(=O)(=O)c2ccccc2)[C@@H](CO)O1)NCc1ccc(Cl)c(Cl)c1	active: 20.6 µM	–
COc1ccccc1N1CCN(C(=O)Cn2cnc3onc(-c4ccc(F)cc4)c3c2=O)CC1	inconclusive [inhibitor, single point]	–
CC1=CC(C)(C)NC(=S)N1CCO	inactive	–
C/C(=N\NC(=O)c1nnn(-c2nonc2N)c1-c1cccs1)c1ccc(C)cc1	inactive	–
N#Cc1ccc(OCC(=O)Nc2cc(S(=O)(=O)N3CCOCC3)ccc2N2CCCC2)cc1	inactive	–
CN(C)C(=O)c1cccc(-c2cc(NC=O)c3ncc(-c4ccc(F)c(Cl)c4)n3c2)c1	active: 16.4 µM	–
Cc1cc(C)n(CC(O)Cn2c3ccc(Br)cc3c3cc(Br)ccc32)c(=O)n1 (stereo not drawn)	inactive	–
O=C(NCCc1cccc(F)c1)C1CC(O)CN1C(=O)Nc1ccccc1 (stereo not drawn)	inactive	–
OCCCNC(=S)Nc1ccc2nc(-c3ccccn3)c(-c3ccccn3)nc2c1	inactive	–
Cc1cc(C)c2nc(NCc3ccccc3O)sc2c1	inconclusive [inhibitor, partial curve, poor fit]	–
CCCCN(C)C(=O)C1CCCN(c2ncnc3onc(C)c23)C1 (stereo not drawn)	active: 5.17 µM	–
Cc1nc(SCC(=O)NCc2ccco2)nc(C)c1C	inactive	–
COc1ccc(-c2nc(C#N)c(NCc3ccccc3Cl)o2)cc1OC	inconclusive [inhibitor, single point]	–
CCOc1ccccc1NC(=O)CNC(=O)c1nn(-c2ccc(OC)c(OC)c2)c(=O)c2ccccc12	inconclusive [inhibitor, single point]	–
CCOc1ccc(C(=O)Nc2cccc(-c3nc4cc(Cl)cc(Cl)c4o3)c2)cc1	inactive	–
COC(=O)c1sc(=S)n(-c2cc(F)ccc2F)c1N	active: 14.6 µM	–
CS(=O)(=O)N(Cc1ccccc1F)c1ccccc1	inactive	–
Cc1c(OCC(=O)NC(Cc2ccc(Cl)cc2)C(=O)O)ccc2c(-c3ccccc3)cc(=O)oc12 (stereo not drawn)	inactive	–
O=C(CN1C(=O)c2ccccc2S1(=O)=O)Nc1ccc([N+](=O)[O-])cc1	inactive	–
Cc1ccc(N(CC(=O)NCCSCc2ccco2)S(C)(=O)=O)cc1	inactive	–
CCOc1cc(/C=N/NC(=O)CN2CCCCC2)ccc1OCc1cccc(Cl)c1	inconclusive [inhibitor, single point]	–
CCOc1cccc2cc(C(=O)NCCC3=CCCCC3)c(=O)oc12	inactive	–
